Structures can show the parent of a compound that is named as a salt. ± gives the standard deviation of the averaged measurements. Over roughly 3,100 compounds, “mean cytoplasmic OPP incorporation (global translation) relative to DMSO” has its median near 100; the lowest 2% begin near 56. The list shows a part of the results.

This assay relates to U2OS. Briefly: mean cytoplasmic OPP incorporation (global translation) relative to DMSO (% of DMSO); higher = more protein synthesis. As to conditions: 10 µM; 24 h. How it is done: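 Primary image-based screen in U2OS cells: compounds at 10 uM for 24 h, then a 1 h o-propargyl-puromycin (OPP) pulse, click labelling, and high-throughput microscopy. Mean cytoplasmic OPP intensity and nuclei count were normalised to DMSO wells within each plate (DMSO = 100) and averaged over triplicate plates.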
Turning to `CCCCCCNC(=O)Nc1ccc(S(=O)(=O)Nc2ccc(CCNC[C@H](O)COc3ccc(O)cc3)cc2)cc1`, the “mean cytoplasmic OPP incorporation” value worked out at 107. As to `C[C@H](CCC(=O)O)[C@H]1CC[C@H]2[C@@H]3[C@@H](O)C[C@@H]4C[C@H](O)CC[C@]4(C)[C@H]3CC[C@]12C` [Urosiol], the “mean cytoplasmic OPP incorporation” value was found to be 96.5. As for `C[C@H](CCC(=O)O)[C@H]1CC[C@H]2[C@@H]3[C@@H](O)C[C@@H]4C[C@H](O)CC[C@]4(C)[C@H]3CC[C@]12C` [Ursodiol (Actigal Urso)], the “mean cytoplasmic OPP incorporation” value worked out at 106.

Consider `C#C[C@]1(O)CC[C@H]2[C@@H]3CCC4=CCCC[C@@H]4[C@H]3CC[C@@]21C` [Lynestrenol], for which the “mean cytoplasmic OPP incorporation” value is 106. With `COC(=O)C1=C(C#N)NC(C)=C(C(=O)OC(C)C)C1c1cccc([N+](=O)[O-])c1` (centres undefined) [Nilvadipine] the figure was 112; with `N#Cc1cc2nc(O)c(O)nc2cc1[N+](=O)[O-]` [CNQX disodium salt], 94.9. Take `COC(=O)[C@H](NC(=O)c1cc(-c2ccccc2)nc2ccccc12)c1ccccc1`: the “mean cytoplasmic OPP incorporation” value came to 96.8. On to `CNc1nc(Nc2cn(C(C)(C)C#N)nc2C)ncc1C(F)(F)F`, for which the “mean cytoplasmic OPP incorporation” value worked out at 101. For the compound `CC1CC(OC(=O)c2ccccc2O)CC(C)(C)C1` (centres undefined) [Homosalate], the “mean cytoplasmic OPP incorporation” value was 100.

As for `C[C@@H](CN1CCC(Cc2ccccc2)CC1)[C@@H](O)c1ccc(O)cc1` [Ro 25-6981 maleate], the “mean cytoplasmic OPP incorporation” value amounted to 107. In the case of `Nc1nc(-c2ccc(Cl)c(Cl)c2)c(-c2ccncc2)s1` [CGH 2466 dihydrochloride], the “mean cytoplasmic OPP incorporation” value stood at 100. The same measure for `COCCCN1CCC(NC(=O)c2cc(Cl)c(N)c3c2OCC3)CC1` [Prucalopride]: 111; for `CCCCC/C=C/C=C1/C(=O)C=C[C@@H]1C/C=C\CCCC(=O)O` [15-Deoxy-D12,14-prostaglandin J2]: 90.8; for `NC[C@@H]1O[C@@H](O[C@H]2[C@H](O)[C@@H](O[C@H]3O[C@H](CO)[C@@H](O)[C@H](N)[C@H]3O)[C@H](N)C[C@@H]2N)[C@@H](O)[C@H](O)[C@H]1O` [Kanamycin A sulfate]: 105.

In the case of `N[C@@H](CS(=O)O)C(=O)O` [L-Cysteinesulfinic acid], the “mean cytoplasmic OPP incorporation” value stood at 99.3. On to `N[C@@H](Cc1cc(I)c(Oc2ccc(O)c(I)c2)c(I)c1)C(=O)O` [Liothyronine], for which the “mean cytoplasmic OPP incorporation” value came to 94.4. For the compound `Cc1cc(CN2CCN(c3c(Br)cnc4nc(-c5ccc(N6CCN(C)CC6)cc5)[nH]c34)CC2)no1`, the “mean cytoplasmic OPP incorporation” value was determined as 97.5 ± 3.1. With `COc1ccc(C2CC(=O)c3c(O)cc(OC4OC(COC5OC(C)C(O)C(O)C5O)C(O)C(O)C4O)cc3O2)cc1OC` (centres undefined) [Methyl-Hesperidin] the figure was 104; with `CCC(=O)NC1Cc2ccccc2C(c2ccccc2)C1` (centres undefined), 102. With `Cl/C(=C\n1cncn1)c1ccc(Cl)cc1Cl` [Loreclezole hydrochloride] the figure was 98.7; with `CC1(C(=O)O)NCCc2cc(O)c(O)cc21` (centres undefined) [Salsolinol-1-carboxylic acid], 98.5; with `CN(C)C(=O)[C@H](O)[C@H](Cc1ccccc1)NC(=O)c1cc2cc(Cl)ccc2[nH]1`, 111. For the compound `Cc1ccc(=O)n(-c2ccccc2)c1` [Pirfenidone], the “mean cytoplasmic OPP incorporation” value is 100. On to `CN1CCC(=C2c3ccccc3Sc3ccccc32)CC1` [Pimethixene maleate], for which the “mean cytoplasmic OPP incorporation” value was determined as 112. The same measure for `O=C(O)c1cc(=O)c2c(Cl)cc(Cl)cc2[nH]1` [5,7-Dichlorokynurenic acid]: 93.5; for `Clc1ccccc1CNCC1CCC(CNCc2ccccc2Cl)CC1` (centres undefined): 112; for `CCCNC(=O)Nc1ccc(Oc2ncnc3cc(OC)c(OC)cc23)cc1Cl`: 112. On to `CN(C)C(=O)C(=O)c1cn(C)c2cc(Cl)c(C(=O)N3CCC(Cc4ccc(F)cc4)CC3)cc12`, for which the “mean cytoplasmic OPP incorporation” value was 106. Take `O=C(NCCCCN1CCN(c2cccc(Cl)c2Cl)CC1)c1ccc2c(c1)Cc1ccccc1-2`: the “mean cytoplasmic OPP incorporation” value amounted to 107. With `C[C@@H](O[C@H]1OCCN(Cc2n[nH]c(=O)[nH]2)[C@H]1c1ccc(F)cc1)c1cc(C(F)(F)F)cc(C(F)(F)F)c1` [Aprepitant (MK-0869)] the figure was 105. For `C[C@@H](O[C@H]1OCCN(Cc2n[nH]c(=O)[nH]2)[C@H]1c1ccc(F)cc1)c1cc(C(F)(F)F)cc(C(F)(F)F)c1` [Aprepitant], the “mean cytoplasmic OPP incorporation” value is 109. With `Cc1cn(-c2cc(NC(=O)c3ccc(C)c(Nc4nccc(-c5cccnc5)n4)c3)cc(C(F)(F)F)c2)cn1` [Nilotinib (AMN-107)] the figure was 118. For the compound `NC(=O)c1ccc(-c2nc(-c3ccccn3)c(-c3ccc4c(c3)OCO4)[nH]2)cc1`, the “mean cytoplasmic OPP incorporation” value was determined as 104. In the case of `CC(C)(C)c1ccc(S(=O)(=O)/C=C/C#N)cc1`, the “mean cytoplasmic OPP incorporation” value came to 82.7.

Turning to `CN1CCCN=C1/C=C/c1cccc(O)c1` [Oxantel pamoate], the “mean cytoplasmic OPP incorporation” value came to 98. Take `CC(N)CCCC(C)(C)O` (centres undefined) [Heptaminol hydrochloride]: the “mean cytoplasmic OPP incorporation” value came to 105. With `CCCCC[C@H](O)/C=C/[C@@H]1[C@H]2C/C(=C/CCCC(=O)O)C[C@H]2C[C@H]1O` [Carbacyclin] the figure was 101; with `CCN1C[C@H](C)n2c(c(O)c3c(=O)n(Cc4ccc(F)c(Cl)c4)nc(C(=O)NC)c32)C1=O`, 104. Consider `Cc1c(O)c(=O)n(-c2ccccc2)n1C` [Antipyrine, 4-hydroxy], for which the “mean cytoplasmic OPP incorporation” value was 103. With `CC(C)OC(=O)C(C)(C)Oc1ccc(C(=O)c2ccc(Cl)cc2)cc1` [Fenofibrate], the “mean cytoplasmic OPP incorporation” value came to 105. Regarding `Cn1cc(/C=C2\C(=O)Nc3cccnc32)c2ccccc21`, the “mean cytoplasmic OPP incorporation” value amounted to 97.9. On to `Cc1ccc(NC(=O)C2(c3ccc4c(c3)OC(F)(F)O4)CC2)nc1-c1cccc(C(=O)O)c1`, for which the “mean cytoplasmic OPP incorporation” value was found to be 100.

`Cc1cc2c(s1)Nc1ccccc1N=C2N1CCN(C)CC1` [Olanzapine]: the “mean cytoplasmic OPP incorporation” value stood at 105.

On to `CN1C(=O)C(Cc2c[nH]c3ccccc23)NC1=S` (centres undefined) [Necrostatin-1], for which the “mean cytoplasmic OPP incorporation” value came out at 98.9. As for `Cc1cc(C(=O)O)sc1C(N)C(=O)O` (centres undefined), the “mean cytoplasmic OPP incorporation” value came out at 104. As to `COc1cc2c(NC3CCN(C)CC3)nc(N3CCCN(C)CC3)nc2cc1OCCCN(C)C`, the “mean cytoplasmic OPP incorporation” value was 112. With `CC=CC1=C(C(=O)O)N2C(=O)[C@@H](NC(=O)[C@H](N)c3ccc(O)cc3)[C@H]2SC1` [Cefprozil hydrate (Cefzil)] the figure was 99.7; with `O=S(=O)(O)Oc1ccc(C(c2ccc(OS(=O)(=O)O)cc2)c2ccccn2)cc1` [Sodium Picosulfate], 99.5; with `NC(=O)CC[C@H](N)C(=O)O` [L-Glutamine], 115. With `CCn1c(-c2nonc2N)nc2c(C#CC(C)(C)O)ncc(OC[C@H]3CCCNC3)c21`, the “mean cytoplasmic OPP incorporation” value was determined as 97.6 ± 2.1. The same measure for `CCN(CC)CCOc1ccc(Nc2ncc3cc(-c4c(Cl)cccc4Cl)c(=O)n(C)c3n2)cc1`: 53.6.

On to `CCCCc1ccc2[nH]c(NC(=O)OC)nc2c1` [Parbendazole], for which the “mean cytoplasmic OPP incorporation” value was 72.5. With `COc1cc2ncnc(Nc3cccc(Cl)c3)c2cc1OC` [AG-1478 (Tyrphostin AG-1478)] the figure was 91; with `O=c1oc2cc(O)ccc2s1` [Tioxolone], 100; with `CN1CCCN(C(c2ccccc2)c2ccc(Cl)cc2)CC1` (centres undefined) [Homochlorcyclizine dihydrochloride], 104. In the case of `C[C@@H]1C[C@H]2[C@@H]3CCC4=CC(=O)C=C[C@]4(C)[C@@]3(Cl)[C@@H](O)C[C@]2(C)[C@@]1(OC(=O)c1ccco1)C(=O)CCl` [Mometasone furoate], the “mean cytoplasmic OPP incorporation” value came out at 96.6 ± 7. Turning to `CCOC(=O)c1cnc2c(cnn2CC)c1NN=C(C)C` [Etazolate hydrochloride], the “mean cytoplasmic OPP incorporation” value stood at 97.7.

For the compound `O=C(O)[C@H](CC(=O)N1C[C@H]2CCCC[C@H]2C1)Cc1ccccc1` [Mitiglinide calcium], the “mean cytoplasmic OPP incorporation” value is 110. In the case of `C[C@]12CCC3=C4CCC(=O)C=C4CC[C@H]3[C@@H]1CC[C@@]2(O)CC#N` [Dienogest], the “mean cytoplasmic OPP incorporation” value was 99.8. For the compound `COc1cc2ncnc(-n3nc(-c4ccccn4)nc3N)c2cc1OC`, the “mean cytoplasmic OPP incorporation” value turned out to be 101. Regarding `Nc1ncnc2c1ncn2C1OC(COP(=O)(O)O)C(O)C1O` (centres undefined) [Adenosine 5'-monophosphate monohydrate], the “mean cytoplasmic OPP incorporation” value turned out to be 92.4. With `O=C(O)c1cc(/N=N/c2ccc(S(=O)(=O)Nc3ccccn3)cc2)ccc1O` [Sulfasalazine], the “mean cytoplasmic OPP incorporation” value was 100.

With `C=C1c2cccc(O)c2C(O)=C2C(=O)[C@]3(O)C(O)=C(C(N)=O)C(=O)[C@@H](N(C)C)[C@@H]3[C@@H](O)[C@H]12` [Methacycline HCl (Physiomycine)], the “mean cytoplasmic OPP incorporation” value is 103. `NC(=O)c1ccc(I)c([N+](=O)[O-])c1` [Iniparib (BSI-201)]: the “mean cytoplasmic OPP incorporation” value was determined as 99.5.

Take `O=C(O)c1ccccc1Nc1cccc2c1C(=O)c1cccc(Nc3ccccc3C(=O)O)c1C2=O`: the “mean cytoplasmic OPP incorporation” value is 113. For the compound `CCc1cccc(CC)c1NC(=O)CN(CC(=O)O)CC(=O)O` [Etifenin], the “mean cytoplasmic OPP incorporation” value came out at 98.9. `CN/C(=N\CCSCc1nc[nH]c1C)NC#N` [Cimetidine (Tagamet)]: the “mean cytoplasmic OPP incorporation” value was found to be 114. Regarding `CN/C(=N\CCSCc1nc[nH]c1C)NC#N` [Cimetidine], the “mean cytoplasmic OPP incorporation” value was 98.73 ± 0.22. On to `COc1ccc(C2=N[C@@H](c3ccc(Cl)cc3)[C@@H](c3ccc(Cl)cc3)N2C(=O)N2CCNC(=O)C2)c(OC(C)C)c1` [Nutlin-3], for which the “mean cytoplasmic OPP incorporation” value is 106. Regarding `CC1CCN=C(N)S1` (centres undefined) [AMT hydrochloride], the “mean cytoplasmic OPP incorporation” value stood at 96.7. As to `N#C/C(=C\c1ccc(O)c(O)c1)C(=O)NCCCc1ccccc1`, the “mean cytoplasmic OPP incorporation” value turned out to be 92.7. For the compound `Nc1cc(N2CCCCC2)nc(N)[n+]1[O-]` [Minoxidil], the “mean cytoplasmic OPP incorporation” value amounted to 103 ± 2.3. For the compound `CS(=O)(=O)Nc1c(O)ccc2c1CCCC2C1=NCCN1` (centres undefined), the “mean cytoplasmic OPP incorporation” value amounted to 93.7. With `N#Cc1cc(CN2CCC(Nc3ncnc4sc(Cl)cc34)CC2)ccc1F`, the “mean cytoplasmic OPP incorporation” value is 109. For the compound `COc1ccc2cc([C@H](C)C(=O)O)ccc2c1` [Naproxen (Aleve)], the “mean cytoplasmic OPP incorporation” value was 103. For `COc1ccc2cc([C@H](C)C(=O)O)ccc2c1` [Naproxen sodium], the “mean cytoplasmic OPP incorporation” value stood at 99.7.

For `COc1ccc2cc([C@H](C)C(=O)O)ccc2c1` [Naproxen], the “mean cytoplasmic OPP incorporation” value was 103. `C[C@]12CCC(=O)C=C1[C@@H]1C[C@@H]1[C@H]1[C@@H]3[C@@H]4C[C@@H]4[C@@]4(CCC(=O)O4)[C@@]3(C)CC[C@@H]12` [Drospirenone]: the “mean cytoplasmic OPP incorporation” value was found to be 110. For the compound `CC(C)C[C@H](NC(=O)[C@H](CCC(=O)O)NC(=O)CNC(=O)c1ccc(/C=C/C(=O)O)cc1)C(N)=O`, the “mean cytoplasmic OPP incorporation” value amounted to 99.6.

Source of the values: the supplement of paper PMC8183993.
